From PMC7143554
Results are given in words; binding and its absence hold for the method and conditions named. For part of these data: In cells and extracts the contact can be indirect. Some entries that bind do so weakly or less than the wild type.

Sequences of proteins named here, by UniProt entry; tags and fusion partners are left off.
UniProt D6YUB1: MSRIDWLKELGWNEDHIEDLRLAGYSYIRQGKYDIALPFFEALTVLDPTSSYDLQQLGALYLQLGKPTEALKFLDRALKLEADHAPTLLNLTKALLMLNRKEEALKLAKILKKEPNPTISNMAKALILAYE
UniProt D6YSK5: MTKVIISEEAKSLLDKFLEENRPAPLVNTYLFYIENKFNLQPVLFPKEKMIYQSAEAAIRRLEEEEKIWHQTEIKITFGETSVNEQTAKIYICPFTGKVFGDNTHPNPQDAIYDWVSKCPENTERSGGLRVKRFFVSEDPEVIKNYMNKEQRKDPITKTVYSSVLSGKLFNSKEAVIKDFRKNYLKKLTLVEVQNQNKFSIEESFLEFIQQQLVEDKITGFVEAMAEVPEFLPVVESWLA

Tests used:
[1] = target: His-tagged Wcw_0616 (T3SS chaperone, counterpart of Multiple Cargo Secretion Chaperone Mcsc) (Waddlia chondrophila) (UniProt D6YV23); test: pull-down; Pierce Pull down PolyHis kit; His-tagged chaperones from E. coli cultures fixed on HisPur Cobalt resin (1.5 h, 4 °C, Tris buffer, 10 mM imidazole), 5 washes with 20 mM imidazole; purified non-tagged Wcw_1706 added 2 h at 4 °C in phosphate buffer, 40 mM imidazole, 500 mM NaCl; eluted with 290 mM imidazole; immunoblot with anti-Wcw_1706; both purified
[2] = target: His-tagged Wcw_0969 (T3SS chaperone, homolog of SlcI) (Waddlia chondrophila) (UniProt D6YW18); test: as above
[3] = target: His-tagged Wcw_0348 (T3SS class II chaperone, tetratricopeptide repeat-containing protein) (Waddlia chondrophila) (UniProt D6YUB1); test: as above
[4] = target: GST-tagged Wcw_1706 (Waddlia chondrophila) (UniProt D6YSK5); test: pull-down; Pierce GST Protein Interaction Pull-Down Kit; GST-tagged Wcw_1706 with His-tagged chaperones; immunoblot (anti-GST, anti-His)

Substance | binding [1] | binding [2] | binding [3] | binding [4]
Wcw_1706 (non-tagged, purified) (from UniProt D6YSK5 1-240) | no binding | no binding | binds | –
His-tagged Wcw_0616 (T3SS chaperone, counterpart of Multiple Cargo Secretion Chaperone Mcsc) (from UniProt D6YV23 1-153) | – | – | – | no binding
His-tagged Wcw_0969 (T3SS chaperone, homolog of SlcI) (from UniProt D6YW18 1-168) | – | – | – | no binding
His-tagged Wcw_0348 (T3SS class II chaperone, tetratricopeptide repeat-containing protein) (from UniProt D6YUB1 1-131) | – | – | – | binds
